93 sequences from article PMC10726135 can be followed below.

The list shows a part of the results. At the low end of the ranking the order means little. Measured with an extract: partners may take part in the binding.

The target in the test is T1, HNF4alpha2 (COS-7 nuclear extract) (UniProt P41235).
T1 sequence: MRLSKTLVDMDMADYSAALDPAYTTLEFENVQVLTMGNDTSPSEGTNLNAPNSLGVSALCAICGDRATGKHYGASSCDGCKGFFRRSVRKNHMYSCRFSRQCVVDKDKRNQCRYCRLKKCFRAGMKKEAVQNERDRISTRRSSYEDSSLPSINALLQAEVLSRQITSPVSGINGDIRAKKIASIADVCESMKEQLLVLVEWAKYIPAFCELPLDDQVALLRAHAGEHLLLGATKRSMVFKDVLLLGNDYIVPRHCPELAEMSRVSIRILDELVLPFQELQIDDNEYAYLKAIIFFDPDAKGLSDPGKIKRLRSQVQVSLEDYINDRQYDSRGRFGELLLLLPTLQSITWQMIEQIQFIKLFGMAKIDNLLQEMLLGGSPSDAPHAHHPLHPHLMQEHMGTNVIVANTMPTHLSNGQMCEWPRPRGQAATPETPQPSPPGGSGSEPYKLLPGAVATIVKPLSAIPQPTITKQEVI
In words: protein-binding microarray. The note with it: COS-7 nuclear extract on double-stranded Agilent 4x180k PBM; binding buffer, salt, pH and temperature not given; high values mean tight binding; double strand, one strand shown; sequences stand for … in …GCCTAGGGAGATTAGAGTATCGGTCGA
As for AGTGAAGGTTCAGTGAAGTAGTGTGTATGA, the binding signal (log2 normalized intensity) is 2.27.

On to GGCCTCCACACATTGCCACACTATTTACAC, for which the binding signal (log2 normalized intensity) was -0.361.

With GGACTTCTCTGCCCTCTTCCCTCTACCTCT, the binding signal (log2 normalized intensity) came to 1.76.

For TGCTCTCAGCACACTCTGGTACCATGGATG, the binding signal (log2 normalized intensity) was 0.503.

Take ATCTAGGTGAGGGATGAGGACTTTGATCAG: the binding signal (log2 normalized intensity) amounted to 6.01.

With CTAGCAAGTGCCAAGATGCTAAGGCAAGAT, the binding signal (log2 normalized intensity) was -1.14.

In the case of TGACCTTTGCTCCAGTTCCCAATAATTTCC, the binding signal (log2 normalized intensity) was determined as 4.46.

With GGCCCAGCTGGTTTGAAGAATGTGGTCTGG, the binding signal (log2 normalized intensity) amounted to 1.06.

Take AATCACACTAATCTGTCAGAAAACCCACGC: the binding signal (log2 normalized intensity) was -0.674.

Consider AAATGAAGCAACACTTTCTGACCTTTAAGC, for which the binding signal (log2 normalized intensity) stood at 4.52.

For AAGGGCAAGTGACTGATAAGGCTAAGTGGA, the binding signal (log2 normalized intensity) is -1.17.

In the case of CACTCTACTCTCTTTGGAGTGCTCCCGCCT, the binding signal (log2 normalized intensity) amounted to 0.514.

In the case of GCCAAGTTGAGGAGTTTGTACTTTATCCTA, the binding signal (log2 normalized intensity) turned out to be 2.93.

Consider AGCTGAGCAGAGAGGACCCTGTGATCATAT, for which the binding signal (log2 normalized intensity) amounted to 0.616.

With CCCTAGGAAGGATAAGAGCAAGAAACAGCA, the binding signal (log2 normalized intensity) was -1.14.

Consider GCAGCCAGTTCTGGACGGCAGATGCAGAGT, for which the binding signal (log2 normalized intensity) is -1.07.

For the sequence GGAAGGGTATGCATGGAATGCAGGAGATCC, the binding signal (log2 normalized intensity) was -0.852.

As for AACATCATAGAGTGTACTTATGCAGACCTG, the binding signal (log2 normalized intensity) was found to be 0.451.

Regarding GAAGACCAAAGTTCTTATTTGCTGAGGAAG, the binding signal (log2 normalized intensity) was -0.462.

TGTTCACTCTAGGAACTTGTCTAAAAACAT: the binding signal (log2 normalized intensity) was -1.18.

CCCCCAGGTAGCTGCCAATGCAAATCCCAG: the binding signal (log2 normalized intensity) is 1.35.

For the sequence TCAAAGGGCAAAGGAATAAAATAGCTGCCT, the binding signal (log2 normalized intensity) was -1.08.

In the case of AAGATCAGTATAGTTAGGGCCTTGCAGGGG, the binding signal (log2 normalized intensity) was found to be 0.175.

Consider TGCGCTTAGTCCATGACGCAAGCGAGTAAG, for which the binding signal (log2 normalized intensity) was -0.852.

On to TGGGCTCCTGCCTTGGAGAAGTGAACTTTG, for which the binding signal (log2 normalized intensity) stood at 4.34.

Take ACATAAGCAGAGCCAAGTGGTCATTACCTC: the binding signal (log2 normalized intensity) is -1.11.

In the case of GTTATCTCTCAACTCAGTGAGGGCTATTGA, the binding signal (log2 normalized intensity) came to 0.946.

For the sequence ACCCAGACGAGCTGTCACTGGCTGCTGCTC, the binding signal (log2 normalized intensity) is -1.22.

As for CACATACACACACACACACACACATTGCAG, the binding signal (log2 normalized intensity) was -1.05.

In the case of CTTCCTCTTCTTCACCGGAGATTTACATTC, the binding signal (log2 normalized intensity) stood at 1.17.

Turning to TAAGATATTGGTAAGTTAAGTAACTCTCCA, the binding signal (log2 normalized intensity) was -1.14.

Take CAACCATCAAAGGTCACTTTACAGATAAAG: the binding signal (log2 normalized intensity) is 2.21.

As to CGGGCGGGGGGTGGGGTGGAAGCTATGCCT, the binding signal (log2 normalized intensity) was -1.02.

For CCCTGCACCCTACCCCCATACTTTATTTAG, the binding signal (log2 normalized intensity) is 2.49.

Regarding ACGATGTGTAAACAAGTGAGCATGGCTGTG, the binding signal (log2 normalized intensity) was 0.636.

Turning to TGCAGTGTCCATGGTGACCATGTGATGTGA, the binding signal (log2 normalized intensity) is 1.51.

For TCACCACTTCAAGCTTGGTATGCTTAAGTG, the binding signal (log2 normalized intensity) was -0.618.

Take TGATTTATTCAGGCAATGTCACGTTTATTT: the binding signal (log2 normalized intensity) was 1.32.

With TCTCTCGCGAGAGCCGAAGTCTCTCGCCGA, the binding signal (log2 normalized intensity) is -1.01.

Consider GAGCAGGGTATCAGTTGAACAGAATAGAGG, for which the binding signal (log2 normalized intensity) is -0.996.

As to TGTTCTCTGTACGGAAGGCCGGGCCTCAAG, the binding signal (log2 normalized intensity) is -1.09.

Regarding AGTCTGAGGCTGCTCTCTGTCCCTGCACCC, the binding signal (log2 normalized intensity) came to 0.835.

In the case of TAAGGGTAGAGACCTTTGTTTTGTTTTCAA, the binding signal (log2 normalized intensity) stood at 1.35.

Consider GTTGTAGCAGTTCACACTCCCACCAGCATG, for which the binding signal (log2 normalized intensity) was -1.12.

As for CAGGGAGATTTCCTGGGAGAGAAAAGCAAG, the binding signal (log2 normalized intensity) was -1.12.

Regarding CCTTTAGTCTCTAGCCCCGCCCAGATGTCT, the binding signal (log2 normalized intensity) stood at 3.82.

In the case of AAGGCAATATCACTTGTTTGCACAAAGGGT, the binding signal (log2 normalized intensity) was 1.02.

Regarding AGGACTTTGGACCGTCTTGTGGATCCTTGG, the binding signal (log2 normalized intensity) was 4.73.

For the sequence CAGGTTGAGTCCAGCCTGTGGTGGGAAACT, the binding signal (log2 normalized intensity) is -0.127.

Consider GCAGAGTTGGGCAGAAGGTGTTTCAGATGG, for which the binding signal (log2 normalized intensity) was determined as 0.728.

Take AAATAAGGGAGGTAAAAGTCCAACAGGGTT: the binding signal (log2 normalized intensity) was 1.93.

Take GAGTTATCTTCCTCCCCCCTTGGCTACATG: the binding signal (log2 normalized intensity) is 4.15.

For the sequence TTTAACTTTTGGGATCAGCAATGCTCAGCC, the binding signal (log2 normalized intensity) was -0.936.

Consider CGGAAGCCTTCCCCGCCCGCAGCCCAGTCT, for which the binding signal (log2 normalized intensity) was 4.02.

Regarding CCTACATTCCACCCTCATTTGCTTGACCCG, the binding signal (log2 normalized intensity) was determined as 3.47.

With AGACAAGGCACCAAAGGAATCTACATAACA, the binding signal (log2 normalized intensity) was -1.16.

GCCAAATGACTCACTCAAGGCAGCTCAGCT: the binding signal (log2 normalized intensity) was -0.906.

Turning to ACATTCAGGACACTTCTGAAAAAAATATTG, the binding signal (log2 normalized intensity) was 0.151.

In the case of GGTGGCCGAGCAGGACGCTACCCGCTTGGC, the binding signal (log2 normalized intensity) is -1.25.

AGGGTGACACTGCTCTCTCCAGGGGAGGGT: the binding signal (log2 normalized intensity) was -1.07.

On to AACCCCCAAAACTGCCTGATAATCTTATCA, for which the binding signal (log2 normalized intensity) amounted to 2.47.

Consider GTGAGGCTGTGATGTTTGCCCATGATCATA, for which the binding signal (log2 normalized intensity) is 0.597.

As for GGCTGTTTCACAAGTTTAGCCAAGCAAACA, the binding signal (log2 normalized intensity) is -0.992.

Turning to GGGGTAAGCAAGGCTCTTAGCAGAAGCCCT, the binding signal (log2 normalized intensity) was -1.15.

In the case of TAGAACTCAGTGTGAACTCAATGCTGCTGA, the binding signal (log2 normalized intensity) was -0.787.

Consider ATAATGTCAAAAATCTTAAGGAGGAGTGCT, for which the binding signal (log2 normalized intensity) is -1.06.

In the case of TTCGTTGAAAGCTGCTTCCCAGTTGCTCTG, the binding signal (log2 normalized intensity) is -1.2.

For the sequence CATCTTCTTATCTGAGGTTTGACTTTGAGG, the binding signal (log2 normalized intensity) was 2.27.

Take GAAACACATTCTTAGACAACACACCACCTG: the binding signal (log2 normalized intensity) is -1.05.

For CCGAGGCCTTGAGCATACAAAACCCCTTAT, the binding signal (log2 normalized intensity) came to 1.57.

On to TGCGGTAATCCTTACGGCCCTGTGGTGTTC, for which the binding signal (log2 normalized intensity) is 1.62.

Take TGGTGAGTCAGTTCCCCTGCGGACTCTGGA: the binding signal (log2 normalized intensity) is 2.44.

For ACTTATCAGAGGAAATTCAGATCAAAGCAA, the binding signal (log2 normalized intensity) is -1.15.

With ACGTCTGTTAACCAAGATACTGGGTCAGAG, the binding signal (log2 normalized intensity) came out at 1.11.

Take AGGAGTGTCTTTCTCCTTGAACACAGTGTT: the binding signal (log2 normalized intensity) came to 1.25.

As to GCCCTTTGACCTCTCTCTCCTAACTATGGT, the binding signal (log2 normalized intensity) was 5.51.

With GGAATGCTGAAGGGAAGGCTGCCGTCCTCA, the binding signal (log2 normalized intensity) is -1.14.

On to AAGCTGAATATTTATCAGATACAGGAGATC, for which the binding signal (log2 normalized intensity) came to 0.738.

With CATTTTGTCTTTTCTCCCCTGACTACCAGC, the binding signal (log2 normalized intensity) stood at 2.14.

As for AGTTGGAGAAGAGCAAAGATCATCTGGTGG, the binding signal (log2 normalized intensity) was 1.58.

As to ACAGGGCTGGGATAACCGAGGCTGACAGCA, the binding signal (log2 normalized intensity) is -1.04.

CCCACTTGTATGTCCAAGGGTCACTCGACA: the binding signal (log2 normalized intensity) worked out at 3.48.

For the sequence AATGAGGACGTGTGTGTTCTGGACTTCTCT, the binding signal (log2 normalized intensity) is 2.17.

For the sequence GACCCGAGTGCCCTTTGGCAAACAGGAGCT, the binding signal (log2 normalized intensity) is 0.391.

As to ACTAGGAGCCTGCACGCCTGTTCACATTCC, the binding signal (log2 normalized intensity) is -0.755.

As for AGGGACCCTTCCTCGGTGGAGTTGACACAG, the binding signal (log2 normalized intensity) was determined as 1.11.

As for GAAATTCAGGCTGAGGTGCTCTCAGATAAG, the binding signal (log2 normalized intensity) is -1.16.

Turning to ACAATGTGAGCAGGTGTGTGGCATCTTGGG, the binding signal (log2 normalized intensity) came out at 0.785.

In the case of TTAGTGCATAACTTTTGAATCCTCTTTGAG, the binding signal (log2 normalized intensity) is -0.77.

Regarding TTCTGACCTTTAAGCACCCAGAGCCCCACC, the binding signal (log2 normalized intensity) is 4.7.

With AAGAATGAAAGCCAAGGCAGATATGAAAGA, the binding signal (log2 normalized intensity) was -1.

Turning to TTTTTTCAGGTGTTGCTCTCTTGCCATTCG, the binding signal (log2 normalized intensity) was found to be 0.156.

Consider TCTCTCTCCTCTCCAGCCCATCCTAAGCCC, for which the binding signal (log2 normalized intensity) worked out at 2.85.
